Assay results reported in PubChem BioAssay AID1645887 (National Center for Advancing Translational Sciences (NCATS), 2021).
Values joined by “and” are separate entries in the source; they are usually repeats but may differ in a detail not shown here. Equal values may be shown once. In all, about 16,000 compounds went through this assay and about 40 (0.2%) were called active. Not shown: some 1% with an inconclusive outcome. The call rests on the fitted dose curve; in most records, active means well fitted activation curve with a large enough effect; inconclusive means small, poorly fitted or top-dose-only effect, or another doubt; inactive means no such curve, though single readings can be large or run the other way. The list shows a part of the results.

The compounds below were run against Rap guanine nucleotide exchange factor 4 (Homo sapiens) (UniProt Q8WZA2) (assay: Validation qHTS for agonist of cAMP-regulated guanine nucleotide exchange factor 4 (EPAC2)). Conditions: EPAC2 Rap1B BODIPY-GDP exchange, fluorescence; activation: active compounds read high.
Method in brief: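 Signal normalized against 6.5 mM cAMP as agonist control. Mix of EPAC2 (100 nM), RAP1B-BODIPY-GDP (250 nM) and GDP (50 uM) was read kinetically at 480/540 nm, every 5 min over 30 min, after 5 min room-temperature incubation with compound.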
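Further: exchange makes BODIPY-GDP fluorescence drop when released from Rap1B; series mostly up to about 150 µM.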
On the % scale 0 is the no-effect control and ±100 the full control effect.

Chain of UniProt Q8WZA2 (Q8WZA2 whole entry, looked up): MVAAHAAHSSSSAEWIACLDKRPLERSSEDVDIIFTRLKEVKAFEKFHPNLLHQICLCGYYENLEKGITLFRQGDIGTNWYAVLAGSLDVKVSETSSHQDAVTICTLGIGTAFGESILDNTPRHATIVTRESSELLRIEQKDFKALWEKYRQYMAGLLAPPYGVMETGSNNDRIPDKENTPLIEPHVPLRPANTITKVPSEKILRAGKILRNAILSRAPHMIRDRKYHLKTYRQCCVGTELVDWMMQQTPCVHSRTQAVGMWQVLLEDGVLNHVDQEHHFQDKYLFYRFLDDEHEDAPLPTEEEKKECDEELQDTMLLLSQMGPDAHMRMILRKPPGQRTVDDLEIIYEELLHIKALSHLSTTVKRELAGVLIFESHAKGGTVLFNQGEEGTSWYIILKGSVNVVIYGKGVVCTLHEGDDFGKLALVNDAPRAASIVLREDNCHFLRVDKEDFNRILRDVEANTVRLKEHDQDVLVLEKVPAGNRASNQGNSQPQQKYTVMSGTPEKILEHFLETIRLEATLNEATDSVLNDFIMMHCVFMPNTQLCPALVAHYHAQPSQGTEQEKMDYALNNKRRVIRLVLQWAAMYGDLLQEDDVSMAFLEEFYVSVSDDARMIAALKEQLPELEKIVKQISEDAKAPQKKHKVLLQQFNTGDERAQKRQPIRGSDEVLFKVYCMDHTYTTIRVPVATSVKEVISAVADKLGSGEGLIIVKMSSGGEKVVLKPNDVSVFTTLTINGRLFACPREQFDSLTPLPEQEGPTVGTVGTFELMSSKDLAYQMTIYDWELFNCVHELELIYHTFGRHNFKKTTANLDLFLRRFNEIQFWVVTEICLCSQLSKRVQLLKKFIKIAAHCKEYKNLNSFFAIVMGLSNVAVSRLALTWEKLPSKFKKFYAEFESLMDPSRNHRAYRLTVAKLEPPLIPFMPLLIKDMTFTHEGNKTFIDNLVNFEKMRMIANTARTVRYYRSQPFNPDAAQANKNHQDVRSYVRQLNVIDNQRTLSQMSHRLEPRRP

activation, inactive:
N[C@H](Cc1cnc[nH]1)C(=O)O -7.95% and 9.17%, CNc1ncncc1-c1ccccc1C(F)(F)F -9.61%, CCCCCCCCCC(=O)NO -16.4% and -13.9%, COc1ncc2nc(CCc3ccccc3)c(=O)n(-c3ccccc3)c2n1 2.24%, Clc1cccc(C=NC=Nc2cccc(Cl)c2)c1 2.17%, COc1cc(C2c3cc4c(cc3C(O)[C@H]3COC(=O)C23)OCO4)cc(OC)c1OC (stereo partly specified) -8.25% and -8.94%, Cc1cc(=O)[nH]c(=S)[nH]1 -2.9%, COc1ccc(-c2nc3cc(C)ccc3cc2CN(C(=O)c2ccco2)C2CC2)cc1OC -3.44%, O=C(c1cccc(F)c1)N1CCC[C@@]2(CCN(c3ccncc3)C2)C1 -12.2%, COC(=O)C1C(=O)C(C(=O)/C=C/c2ccco2)C(=O)CC1(C)C (stereo unspecified) 9.01%, CC(=O)[C@@]1(O)CC[C@H]2[C@@H]3C=C(Cl)C4=CC(=O)CC[C@]4(C)[C@H]3CC[C@@]21C -11.5%, N[C@H](Cc1ccc(O)cc1)C(=O)O -7.07%, CC1(C)OC2C(CO)OC(n3cnc4c(=O)[nH]c(N)nc43)C2O1 (stereo unspecified) -7.45%, Brc1ccc(CN2CC[C@H]3C=CCc4cccc(c43)C2)cc1 -38.4%, COc1ccccc1-c1ccnc(-n2ncc(C(=O)N3CCN(C4CCCC4)CC3)c2-c2ccco2)n1 9.92%, c1ccc(-c2cccc(N3CC[C@@]4(CCCNC4)C3)c2)cc1 -14.8%, CC(C)NC(=O)N1CC2(CCN(S(=O)(=O)c3ccccc3)CC2)C1 -6.99%, Cc1ccc(CN2CCCOCCS2(=O)=O)cc1 -2.32%, CC(=O)c1ccc(F)c(-c2cc(C)cc3c2OC(CNC(=O)C2CCCCN2C)C3)c1 (stereo unspecified) -14%, CS(=O)(=O)Nc1cccc(-c2ccc3ncnc(NC4CC4)c3c2)c1 -17.4%, NC(=O)c1ccc2[nH]ccc2c1 -21.4%, COc1cc(=O)n2c(c1C(=O)NCc1ccco1)CCN(Cc1cccc(C(F)(F)F)c1)CC2 -19.2%, CSc1nnc(CNC(=O)/C=C/c2ccccc2Cl)n1-c1ccc(F)cc1 -0.0505%, COc1ccc(OC)c(CN2CCCC(n3cc(C(=O)N4CCCCC4)nn3)C2)c1 (stereo unspecified) 3.07%, Oc1c(Cl)cc(Cl)c(Cl)c1Cc1c(O)c(Cl)cc(Cl)c1Cl 1.98% and 0.587%, Cc1c(N(C)C)c(=O)n(-c2ccccc2)n1C -6.66%, CN(C)C(=O)c1ccc(-c2cncnc2Nc2ccccc2)cc1 -6.77%, O=C(O)C(S)[C@@H](S)C(=O)O (stereo partly specified) -10.2%, CCCCC[C@H](O)/C=C/C1=C(CCCCCCC(=O)O)C(=O)CC1 -0.903%, COc1cccc(-c2nccc(NC3CCNCC3)n2)c1 0.711%, O=C(O)C[C@H]1c2cc(F)ccc2S(=O)(=O)N1C1CCCCC1 -6.76%, CCCc1c(-c2ccc(O)cc2)nn(-c2ccc(O)cc2)c1-c1ccc(O)cc1 -18.4% and 14.5%, COCCn1c(=O)c(-c2ccc(Cl)cc2)nc2cnc(OCc3ccccc3)nc21 -16.7%, COc1ccc(/C=C/C(=O)Nc2ccccc2C(=O)O)cc1OC -15.3% and -16.7%, CCN(CC)CCNC(=O)c1c(C)[nH]c(/C=C2\C(=O)Nc3ccc(F)cc32)c1C -14.1%, COC(=O)[C@@H]1[C@@H]2C[C@H]3c4[nH]c5ccccc5c4CCN3C[C@@H]2CC[C@@H]1O -22.5% and -4.85%, COc1cccc(Cn2c(=O)cnc3cnc(Nc4cccc(OC)c4)nc32)c1 16.5%, CSc1ncnc2c1ncn2C1OC(CO)C(O)C1O (stereo unspecified) -11.2%, CC(C)(C)OC(=O)NS(=O)(=O)NOCc1ccccc1 -9.26%, COCC(=O)N1CCC[C@@]2(CCN(C(=O)Nc3cccc(C#N)c3)C2)C1 -11.3%, C=C1C([C@@]2(C)C(OC(C)=O)CC(=O)O[C@@](C)(COC(C)=O)C2CC(=O)OC)C(OC=O)C(OC(=O)C(O)C(C)CC)[C@]2(C)C(c3ccoc3)CC(=O)C12O (stereo partly specified) -24%, COc1ccccc1C1CN(CC(=O)N2CCC(N3CCOCC3)CC2)Cc2ccccc2O1 (stereo unspecified) -15.1%, COc1cccc(-c2ccc3ncnc(NCc4cccnc4)c3c2)c1 -11%, CN1CC(O)c2cc(N=NC(N)=O)c(O)cc21 (stereo unspecified) -14.7%, FC(F)(F)c1cc(CN2CCC3(CCNCC3)CC2)cc(C(F)(F)F)c1 -8.73%, OCC(O)COc1cccc2ccccc12 (stereo unspecified) 4.09%, Cc1cnc(C)c(-c2ccc(O)c(CN3CCN(C=O)CC3)c2)n1 -13.6%, CN1CCN(c2nc(-c3cccc(NS(C)(=O)=O)c3)nc3ccccc23)CC1 -13.1%, COc1cc2c(cc1OC)C1Cc3ccc(OC)c(OC)c3CN1CC2 (stereo unspecified) -10.7%, CCOC(=O)C1=C(COCCN)NC(C)=C(C(=O)OC)C1c1ccccc1Cl (stereo unspecified) -20.7% and -9.83%, CC(=O)N1CCCC1C(=O)O (stereo unspecified) 14.1%, CCCCCCCCCCCCCCC(C(=O)O)C(O)(CC(=O)OC)C(=O)O (stereo unspecified) -39.4%, COc1ccccc1N1CCN(CCN2C(=O)c3ccccc3C(C)(C)C2=O)CC1 4.03% and -13.2%, COc1ccc(CN2[C@@H](CC(=O)O)c3ccccc3S2(=O)=O)cc1 -5.97%, COc1ccc(-c2nc3cnc(N4CCOCC4)nc3n(Cc3cccs3)c2=O)cc1 -9.12%, O=C(O)c1ccc(OCCCOc2ccc(C(=O)O)cc2)cc1 1.74%, CC(=O)O[C@H]1CC[C@@]2(C)C(=CC[C@@H]3[C@@H]2CC[C@]2(C)C(c4cccnc4)=CC[C@@H]32)C1 -12.6%, Cc1cccc(C)c1NC(=O)CC12CCCN1CCC2 0.0064%, CCc1cc(C(=O)NCC2Cc3cc(-c4ccccc4C(C)=O)ccc3O2)no1 (stereo unspecified) -13.3%, COc1ccc(C(=O)N2CCC3(CC2)CN(c2ccncc2)C3)cc1 3.62%, Cc1ccc2ccccc2[n+]1CCCCI -12.7%, O=C(c1ccccc1)c1ccc(Cn2cc(-c3ccccc3)nn2)cc1 -12.6%, COc1cccc(CNC(=O)c2cnn(-c3ncc4c(n3)-c3ccccc3CCC4)c2C)c1OC -8.82%, O=C(c1ccccc1C(F)(F)F)N1CCOc2c(cc(-c3nc4ccccc4s3)cc2OC2CCOC2)C1 (stereo unspecified) 2.52%, O=C(Nc1ccccc1)N1CCCC2(CCN(C(=O)c3ccco3)CC2)C1 2.47%, COc1ccccc1N1CCN(c2nc(CNC(=O)C3CCOC(C)(C)C3)nc3ccccc23)CC1 (stereo unspecified) -25.8%, NCC1OC(O[C@H]2[C@H](O)[C@@H](OC3C(O)C(N)CC(N)C3OC3OC(CO)C(O)C(O)C3N)O[C@@H]2CO)C(N)C(O)C1O (stereo partly specified) -10%, COc1cc(=O)n2c(c1C(=O)NC(C)c1ccco1)CCN(CC=C(C)C)CC2 (stereo unspecified) 2.32%, COc1cccc(Cn2c(=O)c(-c3cccs3)nc3cncnc32)c1 13.3%, c1nc(N2CCOCC2)c2cc(-c3ccoc3)ccc2n1 -7.91%, CC[N+](CC)(CC)CCOc1ccc(/C=C/c2ccccc2)cc1 5.25% and 12.2%, Cc1ccccc1C(=O)Nc1ccc(C(=O)N2CCCC(O)c3cc(Cl)ccc32)c(C)c1 (stereo unspecified) 12.6%, N#Cc1cccc(NC(=O)N2CCCC3(CCN(C(=O)c4ccncc4)CC3)C2)c1 -9.21%, COc1ccc(CNc2ncnc3ccc(-c4c(C)noc4C)cc23)c(OC)c1 7.65%, FC(F)(F)c1ccccc1-c1cncnc1NCCc1cnc[nH]1 -13.9%, COC(=O)c1cc(CNC(=O)c2ccc3ccccc3n2)cc(NC(=O)c2cccc(OC)c2)c1 -22.2%, COc1ccc(NC(=O)[C@@H]2CC=C[C@@H]3CCN(Cc4ccccc4)C(=O)[C@@H]32)cc1 -25.6%, COc1ccc(CNc2ncnc3ccc(-c4cccc(C#N)c4)cc23)c(OC)c1 4.8%, Cc1cn(C2OC[C@@H](O)[C@@H]2CO)c(=O)[nH]c1=O (stereo partly specified) -12.8%, C=C1C(CCl)(CCl)C2(Cl)C(Cl)C(Cl)C1(Cl)C2(Cl)Cl (stereo unspecified) -5%, CC(C)c1cc2c(cc1S(=O)(=O)O)[C@@]1(C)CCC[C@@](C)(C(=O)O)[C@@H]1CC2 -16.8%, CC(C)CN1CCC(=O)N([C@H](CN=[N+]=[N-])Cc2ccccc2)CC1 -31.8%, CC(C)c1c(O)ccc2c1CCC1[C@@](C)(C=O)CCC[C@@]21C (stereo partly specified) 22.5%, CO/N=C(\C(=O)N[C@@H]1C(=O)N2C(C(=O)O)=C(CSc3nnnn3C)CS[C@H]12)c1csc(N)n1 -18.3%, CCC(C(=O)NC(=O)NC(C)=O)c1ccccc1 (stereo unspecified) -33.2%, O=c1c(-c2cc(F)cc(F)c2)nc2cncnc2n1-c1ccccc1 -11.6%
